# According to PubChem BioAssay AID624417 (National Center for Advancing Translational Sciences (NCATS), 2012):
# Hit rate of the full screen: of about 410,000 compounds, about 6,400 (1.6%) were called active. Inconclusive results, whose numbers are uncertain, are shown with a selection of clear calls. Calls follow the shape of the dose curve; as a rule, active = well fitted inhibition curve with a large enough effect; inconclusive = small, poorly fitted or top-dose-only effect; inactive = no such curve, though single readings can be large or run the other way. Potencies of inconclusive entries are left out as doubtful fits.
# Biological target: Glucagon-like peptide 1 receptor (Homo sapiens) (UniProt P43220)
# Assay: qHTS of GLP-1 Receptor Inverse Agonists (Inhibition Mode); also: nearly all actives have a fitted effect of over 55% in size
# Conditions: HEK293 GLP-1R CRE-luciferase, luminescence, 24 h, GLP-1R form is constitutively active; activity change, negative = inhibition: at 38.3 µM (top of the series) unless noted
# Summary of the method: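 Assay principle: reduced luminescence from a cAMP-responsive reporter in HEK293 cells co-expressing a constitutively active GLP-1R. Conditions: 24 hr compound incubation, 37 deg C, 5% CO2.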
# % is scaled to controls: 0 for no effect and ±100 for the full control effect; potency is read from the fitted curve at half-maximal effect; tags tell the direction and shape of the fitted curve.
# Chain of UniProt P43220 (P43220 whole entry, looked up): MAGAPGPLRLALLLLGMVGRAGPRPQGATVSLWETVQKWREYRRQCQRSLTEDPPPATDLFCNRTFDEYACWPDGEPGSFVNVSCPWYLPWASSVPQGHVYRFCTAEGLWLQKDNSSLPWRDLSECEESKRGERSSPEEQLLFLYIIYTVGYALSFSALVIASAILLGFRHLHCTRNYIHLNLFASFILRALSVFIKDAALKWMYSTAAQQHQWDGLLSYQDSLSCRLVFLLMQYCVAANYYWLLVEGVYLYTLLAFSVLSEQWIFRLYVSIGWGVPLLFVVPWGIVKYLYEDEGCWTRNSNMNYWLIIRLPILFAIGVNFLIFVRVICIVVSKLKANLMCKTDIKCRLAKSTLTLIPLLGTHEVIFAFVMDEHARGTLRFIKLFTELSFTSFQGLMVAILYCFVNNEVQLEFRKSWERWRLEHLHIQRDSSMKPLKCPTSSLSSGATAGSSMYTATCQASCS
Compound,"activity change, negative = inhibition",Potency
COc1ccc(N=Nc2cc(C)ccc2O)cc1,inactive: 11.8%,–
CC(C)(C)NC(=O)C(c1ccc(F)cc1)N(Cc1ccccc1Cl)C(=O)c1ccn[nH]1 (stereo not given),–,"inconclusive [inhibitor, partial curve, poor fit]"
O=C(NC1CC1)c1ccccc1NC(=O)c1ccccc1OC(F)F,–,"inconclusive [inhibitor, partial curve, poor fit]"
CC(C)(C)NC(=O)c1ccc(Sc2ccccc2)c([N+](=O)[O-])c1,–,"inconclusive [inhibitor, partial curve, poor fit]"
CCOc1ccccc1N1CCN(C(=O)C2c3ccccc3Oc3ccccc32)CC1,–,"inconclusive [inhibitor, partial curve, poor fit]"
CC(C)(C)OC(=O)N1CCC[C@H]1c1nnc(SCc2ccccc2)o1,–,"inconclusive [inhibitor, single point]"
O=C(Nc1cc(Cl)ccc1Cl)c1ccc2c(c1)N(Cc1cccc(Cl)c1)C(=O)c1ccccc1S2=O (stereo not given),inactive: -5%,–
CC1(C)Cc2ccccc2C(CSc2ccccc2C(=O)O)=N1,–,"inconclusive [inhibitor, single point]"
COc1ccccc1N(CC(=O)NC1CC2CCC1C2)S(=O)(=O)c1ccc(C)cc1 (stereo not given),–,"inconclusive [inhibitor, single point]"
COc1ccc(N2CCN(C(=O)Nc3cn(CC(C)C)c(=O)c4ccccc34)CC2)cc1,inactive: 5.16%,–
O=C(N/N=C/c1ccc(OC2CSC2)cc1)c1ccccc1,–,"inconclusive [inhibitor, partial curve, poor fit]"
CCN(CC)S(=O)(=O)c1ccc(C(=O)NCC2(N3CCOCC3)CCCCC2)cc1,–,"inconclusive [inhibitor, single point]"
CCC(=NNC(=O)c1ccc2c(c1)nc(C)n2CC)c1cc(F)ccc1O,–,"inconclusive [inhibitor, full curve]"
CC1(c2ccc(O)cc2)NC(=O)N(c2ccccc2)N1 (stereo not given),–,active: 3.16 µM
COc1ccccc1NC(=O)c1c(-c2ccc(C)cc2)nnc2ccccc12,inactive: 13.1%,–
CC(C)C1CC(=O)NC(SCC(=O)Nc2ccc(Br)cc2)=C1C#N (stereo not given),–,"inconclusive [inhibitor, full curve]"
CC(C(=O)NC1CCCC1)n1c(-c2ccccn2)nc2ccccc21 (stereo not given),inactive: -28.2%,–
Cn1c(=O)n(CCOc2ccccc2Cl)c2ccccc21,inactive: 10.5%,–
O=C(Nc1ccc2c(c1)OCCO2)c1cccnc1Oc1ccc(Cl)cc1,–,"inconclusive [inhibitor, single point]"
CCC(C(=O)OCC(=O)Nc1ccc(SC(F)F)cc1)c1ccccc1 (stereo not given),–,"inconclusive [inhibitor, partial curve, poor fit]"
COC(=O)[C@H](CC(C)C)NC(=O)NC1CCCc2ccccc21 (stereo not given in full),–,"inconclusive [inhibitor, partial curve, poor fit]"
Cc1ccccc1-c1nc(S(=O)(=O)c2ccccc2)c(NCCCN2CCOCC2)o1,–,"inconclusive [inhibitor, single point]"

Compound,"activity change, negative = inhibition",Potency
O=C(Nc1ccc2c(c1)CCC2)Nc1ccccc1Cl,–,"inconclusive [inhibitor, full curve, poor fit]"
CCN(Cc1ccccc1)C(=O)Cn1c(=O)n(CC(=O)N2CCCCC2)c(=O)c2sccc21,inactive: 1.5%,–
O=C(N/N=C/c1ccco1)c1cc(-c2ccccc2)nc2ccccc12,inactive: -11.5%,–
Cc1c(C(=O)N2CCN(c3ccc(C(F)(F)F)cn3)CC2)oc2ccccc12,–,"inconclusive [inhibitor, single point]"
CSc1ccccc1C(=O)Nc1ccc2c(c1)CCC2,–,"inconclusive [inhibitor, single point]"
CCc1cc(=O)oc2c3c(cc(OCC(=O)NCc4ccco4)c12)OC(C)(C)CC3,–,"inconclusive [inhibitor, single point]"
CC(C)NC(=S)N/N=C/c1ccc(N2CCOCC2)cc1,–,"inconclusive [inhibitor, partial curve, poor fit]"
Cc1ccc(NC(=O)Cn2c(=O)n(Cc3nc(-c4ccccc4)no3)c(=O)c3ccccc32)c(C)c1,inactive: -3.48%,–
O=C(c1ccc(C(F)(F)F)cc1)N1CCN(c2ccc(N3CCOCC3)nn2)CC1,–,"inconclusive [inhibitor, single point]"
CCCCC(=O)NC(=S)Nc1cc(C(=O)O)ccc1OC,inactive: -0.0745%,–
CC1CCCN(Cc2nc3c(c(=O)n(C)c(=O)n3C)n2CC(=O)c2ccccc2)C1 (stereo not given),–,"inconclusive [inhibitor, partial curve, poor fit]"
COc1cccc(C2CC(=O)Nc3cc4c(cc32)OCCO4)c1OC(C)C (stereo not given),–,"inconclusive [inhibitor, single point]"
COC(=O)c1ccccc1CSc1nsc(C)c1C#N,–,"inconclusive [inhibitor, single point]"
CN1CCN(c2ccc(NC(=O)c3ccc(-c4ccccc4F)o3)cc2)CC1,–,"inconclusive [inhibitor, full curve]"
COc1cc(CNCCN2CCOCC2)ccc1OCc1ccc(Cl)cc1,–,"inconclusive [inhibitor, partial curve, poor fit]"
O=C(NCCCN1CCc2ccccc2C1)C1CCN(S(=O)(=O)N2CCC3(CC2)OCCO3)CC1,inactive: 1.75%,–
Cn1c(=O)n(CCOc2ccc(Cl)cc2Cl)c2ccccc21,inactive: 9.85%,–
COc1ccc(-c2nn(-c3ccccc3)cc2C(=O)N(C)CC(=O)Nc2cccc(F)c2)cc1,–,"inconclusive [inhibitor, partial curve, poor fit]"
Cc1ccc(Cl)cc1-n1ncc2c(NCCc3ccccc3)ncnc21,–,"inconclusive [inhibitor, single point]"
CCCNC(=O)c1ccc2c(c1)N=C(CCC)c1ccccc1S2,–,"inconclusive [inhibitor, full curve, poor fit]"
Cc1cccc(CSc2cn(CC(=O)N3CCOCC3)c3ccccc23)c1,–,"inconclusive [inhibitor, single point]"
C=CCN(CC=C)C(=S)NC(=O)Cc1cccc2ccccc12,–,"inconclusive [inhibitor, partial curve, poor fit]"

Compound,"activity change, negative = inhibition",Potency
O=C(Cn1nc2c(cc1=O)CCCC2)NCc1ccc(Cl)cc1,–,"inconclusive [inhibitor, partial curve, poor fit]"
COc1ccc(CC(=O)N/N=C/c2ccc(C)s2)cc1,–,"inconclusive [inhibitor, single point]"
c1ccc(CSC2=NNC(c3ccccn3)S2)cc1 (stereo not given),–,"inconclusive [inhibitor, full curve, poor fit]"
c1ccc2[nH]c(-c3nc4ccccc4[nH]3)nc2c1,–,"inconclusive [inhibitor, single point]"
Cc1cccc(C(=O)N(C(=O)c2cccc(C)c2)N(C)C)c1,–,"inconclusive [inhibitor, partial curve, poor fit]"
Cc1ccc(N=c2oc3cc(O)ccc3cc2C(N)=O)cc1,–,"inconclusive [inhibitor, partial curve, poor fit]"
CCOC(=O)C1=C(C)NC(=S)N(C=O)C1c1ccccc1 (stereo not given),inactive: -11%,–
Cc1ccc(S(=O)(=O)NCc2ccc(C(=O)N3CCN(c4ccccc4)CC3)cc2)cc1,–,"inconclusive [inhibitor, partial curve, poor fit]"
CN1CCN(c2ccc(NC(=O)c3cccc(OCc4ccccc4)c3)cc2)CC1,–,"inconclusive [inhibitor, full curve, poor fit]"
CC1=NN(C(N)=S)C(=O)C1N=Nc1ccc(F)cc1 (stereo not given),–,"inconclusive [inhibitor, full curve, poor fit]"
CCN1CCN(C(=S)c2ccc(-c3ccccc3)cc2)CC1,inactive: -1.6%,–
CCOC(=O)c1c(-c2ccccc2)csc1NC(=O)CCN1CCOCC1,–,"inconclusive [inhibitor, single point]"
Cc1cccc(-c2nc(SCc3cc(=O)c4c(C)cc(C)cc4[nH]3)n[nH]2)c1,inactive: 1.33%,–
Cc1nn(Cc2ccccc2)c(Cl)c1C(=O)NCCc1ccccc1,–,"inconclusive [inhibitor, single point]"
Cc1c(C(=O)N/N=C/c2ccccc2)[nH]c2c([N+](=O)[O-])cccc12,–,"inconclusive [inhibitor, full curve, poor fit]"
C[C@H](O)[C@@H]1CN2CCc3c([nH]c4ccc(-c5ccc6c(c5)OCO6)cc34)[C@@H]2C[C@@H]1N(C)C(=O)NC1CCCCC1,–,"inconclusive [inhibitor, full curve, poor fit]"
Cc1cccnc1NC(=O)C(c1ccccc1)c1ccccc1,inactive: -28.2%,–
Cc1oc2cc(Br)c(O)c(Br)c2c1C(=O)c1ccccc1,–,"inconclusive [inhibitor, partial curve, poor fit]"
O=C(N[C@H]1C/C=C\C[C@@H](CC(=O)N(CCO)Cc2ccccc2)C(=O)NC[C@H](c2ccccc2)OC1=O)OCC1c2ccccc2-c2ccccc21,–,"inconclusive [inhibitor, partial curve, poor fit]"
O=C(NCc1cccc(C(F)(F)F)c1)c1cccc(S(=O)(=O)NCc2ccccc2)c1,–,"inconclusive [inhibitor, single point]"
Cc1ccc2[nH]c(CNC(=O)C3CCCCC3)cc2c1,–,"inconclusive [inhibitor, partial curve, poor fit]"
